Assay results as given in the supplement of paper PMC3334620.
In all, about 33,000 sequences were measured (“E-score (-0.5 to 0.5)”: median about -0.01, highest 2% from about 0.26 on). This is one part of the list.

Target: Ste12 (UniProt P13574)
Assay: PBM E-score (8-mer binding enrichment) (E-score (-0.5 to 0.5)); higher = stronger / more preferred TF binding; most listed sequences are background and not binding sites
Settings: protein concentration: 200 nM; construct: GST-DNA-binding domain
How it was run: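 Using PURExpress in vitro transcription/translation, GST-tagged yeast transcription factors were made in full-length or DNA-binding-domain form. These were applied at about 100-200 nM to double-stranded universal all-10-mer Agilent arrays, and bound protein was detected with fluorescent anti-GST. Scans were normalised with masliner before the Universal PBM Analysis Suite assigned E-scores to ungapped eight-base words pooled with their reverse complements.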

| Sequence | PBM E-score |
| --- | --- |
| CTCCAGGA | -0.112 |
| AGTACTTG | -0.0362 |
| CGAATATA | 0.0749 |
| CGATCAGA | -0.12 |
| ACCTCAAT | -0.103 |
| TAATTGGA | 0.14 |
| AAGTTTCG | 0.175 |
| AAGTGATA | 0.079 |
| AACAGGCC | -0.022 |
| ATGTAATG | 0.122 |
| CCAAACCC | 0.194 |
| CAAGCCTC | -0.143 |
| TTCAGAAA | 0.215 |
| GGAGCAAA | -0.0132 |
| CGGGGCGC | -0.0307 |
| ACGGCGGG | 0.0447 |
| AAAAGCCC | 0.00616 |
| AGTGAGGA | 0.00496 |
| AAAGCTTG | 0.0426 |
| GGGTTCTA | -0.0297 |
| GCGCAGGA | -0.22 |
| CTTCTATA | 0.0173 |
| CATACGAG | -0.0837 |
| AATACCCT | 0.0119 |
| CCTTACCC | -0.0323 |

| Sequence | PBM E-score |
| --- | --- |
| GCTTCCAA | -0.0696 |
| GCTTTGCC | -0.0625 |
| AGCGGCGA | 0.131 |
| AGTCAATA | 0.0771 |
| ACGGATCA | 0.00359 |
| CCGGTATA | 0.109 |
| AAATTCTA | 0.0535 |
| AACCTGGG | -0.231 |
| GCAAAGTA | 0.0178 |
| TCCCCACA | -0.0875 |
| TTAACTAA | 0.221 |
| AAGGTTGT | -0.0248 |
| CCCGCACA | 0.023 |
| ACCTTATC | 0.108 |
| GCCTTCTA | -0.101 |
| AGCCTCAA | -0.246 |
| CCGGTGGC | -0.176 |
| AAGACGGT | -0.13 |
| GTTGTGCA | -0.196 |
| GTTTTTGA | 0.236 |
| ATGTACTC | -0.0594 |
| ACCCAATG | -0.0408 |
| ACGGCATC | -0.184 |
| AACTTCGT | -0.0227 |
| CCCACCCG | 0.358 |

| Sequence | PBM E-score |
| --- | --- |
| CTCCGGTA | -0.177 |
| AAAGTCTG | 0.0462 |
| CACTGACA | 0.0228 |
| CTGTTCAC | -0.0139 |
| CATCAATG | 0.121 |
| TCAGCTCA | -0.026 |
| ACACGGCA | -0.0616 |
| CTCCGCTC | 0.0335 |
| ATTACCCG | 0.0371 |
| ATGCTTCC | 0.118 |
| GTTAGCGA | 0.0451 |
| AAGGAATC | 0.00574 |
| ACACCTGA | 0.11 |
| ACAGGCAG | 0.0716 |
| TCCAACCA | 0.0768 |
| ATCTAGGG | 0.00231 |
| ATCGTGCC | -0.0644 |
| GACGTCTC | -0.0893 |
| GAGTGAAA | 0.204 |
| AGCACACC | -0.247 |
| AACCAAAC | 0.0997 |
| ACCAAAAA | 0.27 |
| ATTTAGGC | 0.152 |
| CAGATCTC | 0.117 |
| AGGCTCCC | -0.169 |

| Sequence | PBM E-score |
| --- | --- |
| CTGGAGCC | -0.138 |
| AATGGGGT | -0.0055 |
| ATCCTAGG | 0.0295 |
| CCTACAGA | -0.0726 |
| ACCCCGGT | -0.167 |
| CGAGCACG | -0.0713 |
| AGCGAGAT | 0.119 |
| ATCGCTTC | -0.0328 |
| CTTAAGGC | 0.00461 |
| GCAAACCA | 0.147 |
| CGTAGTTC | -0.145 |
| GGTTAAAC | 0.0928 |
| GCCGAGGC | 0.177 |
| ATTTGGGC | -0.0608 |
| CTGAAAAG | 0.0611 |
| ATCCATGA | -0.125 |
| CAGGACCA | -0.257 |
| CCGTGGCC | -0.214 |
| AGCCGAAG | -0.0604 |
| GAACGTTC | -0.0161 |
| GAGCGTAC | -0.257 |
| ATTGCCAC | 0.0227 |
| AGCGATTA | 0.0294 |
| CCTTGCAC | -0.0181 |
| CTGAGCAA | 0.0139 |

| Sequence | PBM E-score |
| --- | --- |
| GCCGCGTA | -0.0616 |
| AGTAGGCC | -0.0528 |
| AACTGGTC | -0.0307 |
| AGAGGGTG | -0.0796 |
| GTAGCTAA | 0.073 |
| CAGGCAGA | -0.121 |
| CTAGCGGC | -0.19 |
| CATGCTCA | -0.0961 |
| AGCCTTCG | -0.235 |
| CATGCCTC | -0.0916 |
| AGATGATC | 0.0121 |
| GTCTGCGA | -0.165 |
| AGTCGTCG | -0.139 |
| TGCAAGCA | -0.0855 |
| CGTCATTC | 0.014 |
| CTAAGTGC | -0.0598 |
| CCATAGGG | -0.143 |
| CGTGAAAG | 0.0979 |
| ACTGCCCA | -0.127 |
| ACCAGCTA | -0.106 |
| ATTATCCC | 0.0652 |
| ATGCGCAA | 0.0108 |
| GGTTATAA | 0.167 |
| CAACCACG | 0.0204 |
| CTGCAGGC | -0.118 |

| Sequence | PBM E-score |
| --- | --- |
| GCTAAACA | -0.085 |
| CTATGCCA | -0.173 |
| AAAGGCGT | -0.0449 |
| AACCAAGG | 0.156 |
| GCCTCAAA | 0.0976 |
| ATCGTGGA | 0.119 |
| GAAGCGAC | -0.196 |
| AAGCCTAT | -0.0475 |
| CGAGGATA | 0.0389 |
| GCAAGGCA | -0.138 |
| AGAGTTGC | -0.1 |
| GGAAACAC | 0.225 |
| ACGTGGCT | -0.118 |
| CGGAGAGC | -0.0936 |
| AGCTAAAT | -0.00982 |
| GAAAACTA | 0.144 |
| ATATGGCC | -0.162 |
| CTCGATTA | 0.0815 |
| CGGGCGTC | 0.0731 |
| CGATTGTA | 0.156 |
| ATTGCCTC | 0.00753 |
| CAAGGGTA | 0.0306 |
| TGCACCAA | -0.111 |
| TATGTTCA | 0.0922 |
| AGGCTGCC | 0.0205 |

| Sequence | PBM E-score |
| --- | --- |
| CATACACC | 0.0556 |
| AACGTTGA | 0.0304 |
| AACACACG | -0.0496 |
| AAACGTGA | 0.312 |
| AGCAGTTG | -0.126 |
| GCTCCCAA | -0.0782 |
| ACTGGTAA | 0.0525 |
| CATTTCAG | 0.0948 |
| GCCGCAGA | 0.0237 |
| GCTCGCCA | -0.0532 |
| ACATTGTA | 0.156 |
| AAGCCAAT | -0.014 |
| CACAGGCG | -0.161 |
| TAACAAAA | 0.182 |
| TCGTTGCA | -0.0015 |
| GGCCACAC | -0.0159 |
| GCAGATGC | -0.154 |
| AATGCTTG | -0.117 |
| TTGCTAAA | -0.0171 |
| GTCCGCCA | -0.0606 |
| ATCTAGGC | -0.135 |
| TCACGAAA | 0.211 |
